Measured values: article PMC4336329 (PLoS ONE, 2015)
About 2,200 (0.71%) of roughly 310,000 compounds showed an effect of 50% or more. The effect is printed as a negative number. The list shows a part of the results.

target: human ether-à-go-go-related gene (hERG) potassium channel (human, UniProt Q12809); test: primary screen, population patch clamp on CHO cells stably expressing hERG
Sequence (Q12809 whole entry, looked up): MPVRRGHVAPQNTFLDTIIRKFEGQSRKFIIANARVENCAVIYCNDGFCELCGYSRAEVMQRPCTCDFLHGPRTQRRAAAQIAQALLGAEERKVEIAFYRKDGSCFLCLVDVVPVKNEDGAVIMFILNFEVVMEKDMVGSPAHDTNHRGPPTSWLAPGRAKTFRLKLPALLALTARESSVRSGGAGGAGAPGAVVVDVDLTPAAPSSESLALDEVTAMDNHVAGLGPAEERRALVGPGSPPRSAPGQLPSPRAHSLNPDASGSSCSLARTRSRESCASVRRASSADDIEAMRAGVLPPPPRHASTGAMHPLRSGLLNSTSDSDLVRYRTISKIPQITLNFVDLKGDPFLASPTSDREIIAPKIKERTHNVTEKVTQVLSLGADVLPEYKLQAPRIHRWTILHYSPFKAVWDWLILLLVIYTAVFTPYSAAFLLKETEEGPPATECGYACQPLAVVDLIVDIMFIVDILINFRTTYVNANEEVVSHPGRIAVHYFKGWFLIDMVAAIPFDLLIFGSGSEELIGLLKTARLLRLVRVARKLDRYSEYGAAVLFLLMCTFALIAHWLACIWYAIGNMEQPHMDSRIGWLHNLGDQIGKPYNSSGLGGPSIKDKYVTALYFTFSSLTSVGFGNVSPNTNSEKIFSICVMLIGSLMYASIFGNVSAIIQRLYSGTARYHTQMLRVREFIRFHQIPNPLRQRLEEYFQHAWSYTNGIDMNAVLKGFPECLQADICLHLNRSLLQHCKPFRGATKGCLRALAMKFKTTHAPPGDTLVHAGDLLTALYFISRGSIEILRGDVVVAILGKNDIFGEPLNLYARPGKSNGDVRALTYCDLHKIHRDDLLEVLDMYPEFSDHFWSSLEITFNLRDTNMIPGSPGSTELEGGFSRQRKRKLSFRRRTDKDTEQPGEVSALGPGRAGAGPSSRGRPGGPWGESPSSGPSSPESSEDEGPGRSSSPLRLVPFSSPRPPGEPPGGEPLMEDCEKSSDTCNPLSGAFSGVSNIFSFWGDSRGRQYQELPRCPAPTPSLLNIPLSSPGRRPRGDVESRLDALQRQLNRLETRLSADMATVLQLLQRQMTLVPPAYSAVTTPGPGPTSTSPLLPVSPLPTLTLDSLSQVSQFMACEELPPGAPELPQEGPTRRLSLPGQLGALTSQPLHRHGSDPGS

Going from O=C(COc1cccc2c1CCN(Cc1ccccc1)C2=O)N1CCCCC1 to CCOc1ccccc1N(CC(=O)N1CCCCCC1)S(C)(=O)=O, the “hERG current change (%, negative = inhibition) at 1uM” value rises from 8.21% to 12.3%.

First: COc1nc(-c2ccccc2)ccc1-c1noc(-c2cccs2)n1
Second: C/C(=N\Nc1nc(C)cc(-c2ccccc2)n1)c1ccccc1
The “hERG current change (%, negative = inhibition) at 1uM” value of the first is lower: 0.091% for the first, 18.9% for the second.

Compared with CN1C(=O)C(Cc2ccc(OCc3ccccc3)cc2)C(=O)N(C)C1=O, COc1ccc([C@H]2/C=C\CN(C(=O)c3ccccc3)[C@@H](C)C(=O)N2Cc2ccc(F)cc2)cc1 is lower in “hERG current change (%, negative = inhibition) at 1uM” value: 19.1% for the first, -5.9% for the second.

Going from CCn1c(CSCc2ccccc2)n[nH]c1=S to CCCc1cc(=O)[nH]c(SCC(=O)NC(=O)c2ccccc2)n1, the “hERG current change (%, negative = inhibition) at 1uM” value falls from 13.8% to 5.94%.

Compared with O=C(NC1CC1)c1ccc(CSCc2ccccc2Cl)o1, O=C(NCC(=O)N(c1cccnc1)C(C(=O)NC1CCCC1)c1ccccc1)c1ccco1 (centres unmarked) is lower in “hERG current change (%, negative = inhibition) at 1uM” value: 13.4% for the first, 4.96% for the second.

First: Cc1ccccc1Cn1nc(C)c(NC(=O)c2cc(-c3ccco3)on2)c1C
Second: CN(CC(=O)Nc1cccc(F)c1)C(=O)c1cc(-c2ccco2)nc2ccccc12
The “hERG current change (%, negative = inhibition) at 1uM” value of the first is lower: -3.52% for the first, -2.41% for the second.

Going from Cc1scc(C(=O)NNC(=S)NCC2CCCO2)c1-c1ccccc1 (centres unmarked) to Cc1ccccc1C(=O)NNC(=O)c1cc(S(=O)(=O)N2CCOCC2)ccc1C, the “hERG current change (%, negative = inhibition) at 1uM” value falls from 9.6% to 9.44%.

First: COc1cc(/C=N/O)cc(Br)c1OC
Second: COc1ccccc1NC(=O)c1c(Br)cnn1C
The “hERG current change (%, negative = inhibition) at 1uM” value of the first is higher: 10.9% for the first, 8.12% for the second.

First: OCC1(Cc2ccccc2)CCN(Cc2cnn(-c3ccccc3F)c2)CC1
Second: Fc1ccccc1-c1nc(NCc2ccccc2)c2ccccc2n1
The “hERG current change (%, negative = inhibition) at 1uM” value of the first is lower: -4.22% for the first, 12.4% for the second.

Going from O=c1[nH]c(=S)[nH]c(O)c1N=Nc1ccc2c(c1)OCO2 to CCCOc1ccc(C(C)=O)cc1Cc1c(O)[nH]c(=S)[nH]c1=O, the “hERG current change (%, negative = inhibition) at 1uM” value rises from 8.74% to 16.1%.

Compared with COc1cc(CN2CCCCCC2)c([N+](=O)[O-])cc1OC, COc1cc2cc(CN(CCc3cccc(C)c3)C(=S)NCCCN3CCOCC3)c(=O)[nH]c2cc1OC is lower in “hERG current change (%, negative = inhibition) at 1uM” value: 8.92% for the first, 5.22% for the second.

First: Cc1sc(-n2c(C)cc(C=O)c2C)c(C(=O)O)c1C
Second: CCOC(=O)C1=C(O)/C(=C/c2cc(C)n(-c3ccccc3)c2C)N=C1C
The “hERG current change (%, negative = inhibition) at 1uM” value of the first is lower: 5.17% for the first, 8.12% for the second.

Going from COc1ccc(NC(=O)COC(=O)[C@@H]2CCCN2S(=O)(=O)c2ccccc2F)c(OC)c1 to COc1cc(C(=O)NC2Cc3ccccc3C2)ccc1OC1CCN(C(C)=O)CC1, the “hERG current change (%, negative = inhibition) at 1uM” value rises from 9.01% to 9.82%.

Compared with COc1cc(OC)c(NC(=O)CCc2nc(-c3ccc(C)cc3)no2)cc1Cl, COc1cccc(NC(=O)CCc2nnc3ccc(NCc4ccco4)nn23)c1 is higher in “hERG current change (%, negative = inhibition) at 1uM” value: 1.02% for the first, 12.4% for the second.

Compared with Cc1cc([N+](=O)[O-])nn1CC(=O)NNC(=S)Nc1ccc(F)cc1, O=C(CN1CC(c2ccccc2)CC1=O)Nc1ccc(F)cc1 (centres unmarked) is lower in “hERG current change (%, negative = inhibition) at 1uM” value: 5.99% for the first, 2.7% for the second.

Compared with CC(C)Oc1cccc(C(=O)C2CCCN(Cc3cccn3-c3ccccn3)C2)c1 (centres unmarked), O=C(C1CCC1)N1CCc2cc(S(=O)(=O)NCc3ccccn3)ccc21 is higher in “hERG current change (%, negative = inhibition) at 1uM” value: -81.7% for the first, 11.1% for the second.

Compared with Cc1ccc(CCNC(=O)CCn2c(=O)c3cccn3c3ccc(F)cc32)cc1, Cc1ccc(-n2cc(CN3CCNC(=O)CC3)c(-c3ccc(F)cc3)n2)cc1 is lower in “hERG current change (%, negative = inhibition) at 1uM” value: -1.59% for the first, -3.41% for the second.

Compared with CC(C)NS(=O)(=O)c1ccc(N2C(=O)c3ccccc3C2=O)cc1, Cc1cc(C)nc(NS(=O)(=O)c2ccc(NC(=O)CCN3C(=O)c4ccccc4C3=O)cc2)n1 is higher in “hERG current change (%, negative = inhibition) at 1uM” value: 1.18% for the first, 7.12% for the second.

First: CC(C)CC(=O)NC(=S)Nc1nc(-c2ccc(Cl)cc2)cs1
Second: COC(=O)c1sccc1NC(=O)c1ccc(Br)o1
The “hERG current change (%, negative = inhibition) at 1uM” value of the first is lower: -4.42% for the first, 8.28% for the second.

Compared with CC(=O)c1ccc(NC(=O)C2CCC(C)(C(=O)O)C2(C)C)cc1 (centres unmarked), CC(=O)c1ccc(N2CCN(C(=O)C3CCC3)CC2)cc1 is lower in “hERG current change (%, negative = inhibition) at 1uM” value: -4.25% for the first, -7.31% for the second.

Going from C=CC[C@H]1CC(C)=C[C@H](CC=C)N1C(=O)c1cc(COc2ccccc2SC)on1 to CCc1ccc(OCC(=O)NNC(=O)c2c(CC)noc2C)cc1, the “hERG current change (%, negative = inhibition) at 1uM” value rises from 12.9% to 18.9%.

Compared with Cc1c(C(=O)N(C)C)sc(NC(=O)c2cccc([N+](=O)[O-])c2)c1C#N, CCN(CC)S(=O)(=O)c1cc(C(=O)Nc2ccccc2[N+](=O)[O-])ccc1Cl is lower in “hERG current change (%, negative = inhibition) at 1uM” value: 15.8% for the first, -4.53% for the second.

Going from O=C(NN1CC(C(=O)OCc2ccccc2F)CC1=O)c1ccccc1 (centres unmarked) to CCN(c1ccccc1)S(=O)(=O)c1cccc(C(=O)NCC(c2ccco2)N2CCCC2)c1 (centres unmarked), the “hERG current change (%, negative = inhibition) at 1uM” value falls from -16.9% to -18.1%.

Compared with CCc1ccc(N2Cc3ccccc3C2)cc1, O=C(OC1CCOC1=O)c1cccc(S(=O)(=O)N2CCc3ccccc3C2)c1 (centres unmarked) is lower in “hERG current change (%, negative = inhibition) at 1uM” value: 7.99% for the first, 0.462% for the second.

First: CC(NC(=O)c1cc(F)c(F)cc1Cl)c1ccncc1 (centres unmarked)
Second: Cc1ccn2c(=O)nc(SCC(=O)c3ccc(Cl)cc3)nc2c1
The “hERG current change (%, negative = inhibition) at 1uM” value of the first is lower: -2.75% for the first, -2.65% for the second.

Compared with COC(=O)c1ccc(NC(=O)Cn2nc(-c3ccncc3)nc2SCC(=O)Nc2nccs2)cc1, CCc1ccc(N(CC(=O)NC(C)(C)CC)C(=O)CCC(=O)Nc2nccs2)cc1 is lower in “hERG current change (%, negative = inhibition) at 1uM” value: 5.27% for the first, 2.74% for the second.

Compared with CC1CCN(Cc2c(C(=O)N/N=C/c3ccc(OC(C)C)cc3)nnn2-c2nonc2N)CC1, Cc1ccc(-n2c(C)cc(/C=N/NC(=O)c3ccc(CN4CCOCC4)cc3)c2C)cc1 is lower in “hERG current change (%, negative = inhibition) at 1uM” value: 6.27% for the first, 2.56% for the second.

Going from COCCNC(=O)c1cccc(NS(=O)(=O)c2cccc3cccnc23)c1 to COc1cccc(NC(=O)CN(C)C(=O)c2cn(-c3ccccc3)nc2-c2cccs2)c1, the “hERG current change (%, negative = inhibition) at 1uM” value falls from 15.1% to -10.7%.

Compared with C=CCn1c(SCC(=O)NC2CC2)nnc1C1CC1, COCCN(C(=O)c1csnn1)C(C(=O)NC1CCCC1)c1ccccc1F (centres unmarked) is lower in “hERG current change (%, negative = inhibition) at 1uM” value: 17.2% for the first, 12.6% for the second.

Compared with CCOc1ccccc1N1CCN(CC(=O)NC(=O)NCc2ccco2)CC1, CC(C)(C)OC(=O)N[C@@H](Cc1ccccc1)[C@H](O)c1ccco1 is higher in “hERG current change (%, negative = inhibition) at 1uM” value: 2.54% for the first, 9.47% for the second.

Compared with CCC(=O)c1cccc2c1N=CC1=C(CC(C)(C)CC1=O)N2, CCOC(=O)[C@H]1[C@H]2COc3ccccc3[C@@H]2N2C(=O)c3cc(C)ccc3NC(=O)[C@@]12C is lower in “hERG current change (%, negative = inhibition) at 1uM” value: 13% for the first, 12.4% for the second.

Going from Cc1cc(C)n(-c2cc(Cl)ccc2[N+](=O)[O-])n1 to Cc1cc(C)n2nc(SCc3nnc(-c4ccc(F)cc4)o3)nc2n1, the “hERG current change (%, negative = inhibition) at 1uM” value falls from 9.86% to -9.79%.

Going from COC(=O)C1=C(c2ccc(OC(F)(F)F)cc2)C[C@@H]2CC[C@H]1N2C(=O)NCCOc1ccc(OC)cc1 to COc1ccc2oc(C(=O)OCC(=O)NC3CC3)c(C)c2c1, the “hERG current change (%, negative = inhibition) at 1uM” value rises from 1.23% to 13%.

Going from CCCS(=O)(=O)Nc1cccc(-c2cn3c(n2)SCC3)c1 to CC(C)(C)c1nnc(NC(=O)CCS(=O)(=O)c2ccccc2)s1, the “hERG current change (%, negative = inhibition) at 1uM” value rises from 9.3% to 10.1%.

Compared with O=C(/C=C/c1cccc([N+](=O)[O-])c1)NCc1ccc2c(c1)OCO2, O=C(N/N=C/c1cccc([N+](=O)[O-])c1)c1cccc2cc[nH]c12 is higher in “hERG current change (%, negative = inhibition) at 1uM” value: 6.47% for the first, 17.3% for the second.

Going from COc1ccc2c(c1)CC/C(=C/c1ccncc1)C2=O to COc1ccc2c3c(cccc13)OCC2=O, the “hERG current change (%, negative = inhibition) at 1uM” value rises from -5.62% to 0.436%.

Going from Cc1ccc(NC(=S)Nc2ccc(C(C)C)cc2)cc1S(=O)(=O)N1CCCCCC1 to NS(=O)(=O)c1ccc(NC(=S)N2CCC(O)CC2)cc1, the “hERG current change (%, negative = inhibition) at 1uM” value rises from 4.75% to 9.49%.

Going from CC(C)(C)CC(=O)Nc1cccc2c1CCCC2 to COc1cc(CNc2ccc3[nH]c(=O)[nH]c3c2)cc(Br)c1OCC(=O)NC(C)(C)C, the “hERG current change (%, negative = inhibition) at 1uM” value rises from -0.305% to 8.57%.

Compared with C=C(C)Cn1c(CCCNC(=O)CC)nc2ccccc21, CNC(=O)c1ccsc1NC(=O)CCS(=O)(=O)c1ccccc1 is higher in “hERG current change (%, negative = inhibition) at 1uM” value: 4.91% for the first, 15.6% for the second.

Compared with COC(=O)c1cc(CSC(=N)N)ccc1OCCC(C)C.Cl, COCCOc1cc(NC(=O)CS(=O)(=O)CC(=O)N(C)C)c(Cl)cc1Cl is lower in “hERG current change (%, negative = inhibition) at 1uM” value: 14.9% for the first, 11.8% for the second.

First: Cc1ccc(-c2nnc(Nc3ccccc3)o2)cc1
Second: O=C1c2ccccc2C(=O)N1CC(O)CNc1ccc(Br)cc1 (centres unmarked)
The “hERG current change (%, negative = inhibition) at 1uM” value of the first is higher: 5.78% for the first, 5.22% for the second.

First: O=C(Cc1cccs1)Nc1nnc(-c2ccncc2)s1
Second: O=C(c1ccc(Cl)nc1)c1cccs1
The “hERG current change (%, negative = inhibition) at 1uM” value of the first is lower: -0.792% for the first, 16.5% for the second.

Compared with Cc1cccc(N2C(=O)C3C4C=CC(CC4)C3C2=O)c1 (centres unmarked), O=c1cc(CN2CCOCC2)c2c(ccc3ccccc32)o1 is lower in “hERG current change (%, negative = inhibition) at 1uM” value: 11.6% for the first, -6.35% for the second.

Compared with COc1ccc2nc(NC3=NCCC3)sc2c1, Cc1cc(/C=N/NC(N)=S)c(C)n1-c1ccc(Br)cc1 is higher in “hERG current change (%, negative = inhibition) at 1uM” value: -0.226% for the first, 3.16% for the second.

Nc1nnnn1/N=C/c1ccccc1OCc1ccccc1 was tested, and the “hERG current change (%, negative = inhibition) at 1uM” value was 12.8%.
